# Measurements reported in article PMC6919601, “Identification of Plasmodium dipeptidyl aminopeptidase allosteric inhibitors by high throughput screening” (PLoS ONE, 2019).
# Screen size: about 110,000 compounds; about 230 (0.21%) showed an effect of 50% or more. This is one part of the list.
# Molecular target: DPAP1 (Plasmodium falciparum, UniProt Q8IIJ9)
# Assay: primary screen, percent inhibition; read by cleavage of a fluorogenic dipeptide substrate; higher = more effect of the substance
# Parameters: species or system P. falciparum D10 trophozoite lysates; single well
# 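Note: 30 min substrate incubation versus DMSO and 10 µM JCP410 controls.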
# DPAP1, sequence (Q8IIJ9 whole entry, looked up): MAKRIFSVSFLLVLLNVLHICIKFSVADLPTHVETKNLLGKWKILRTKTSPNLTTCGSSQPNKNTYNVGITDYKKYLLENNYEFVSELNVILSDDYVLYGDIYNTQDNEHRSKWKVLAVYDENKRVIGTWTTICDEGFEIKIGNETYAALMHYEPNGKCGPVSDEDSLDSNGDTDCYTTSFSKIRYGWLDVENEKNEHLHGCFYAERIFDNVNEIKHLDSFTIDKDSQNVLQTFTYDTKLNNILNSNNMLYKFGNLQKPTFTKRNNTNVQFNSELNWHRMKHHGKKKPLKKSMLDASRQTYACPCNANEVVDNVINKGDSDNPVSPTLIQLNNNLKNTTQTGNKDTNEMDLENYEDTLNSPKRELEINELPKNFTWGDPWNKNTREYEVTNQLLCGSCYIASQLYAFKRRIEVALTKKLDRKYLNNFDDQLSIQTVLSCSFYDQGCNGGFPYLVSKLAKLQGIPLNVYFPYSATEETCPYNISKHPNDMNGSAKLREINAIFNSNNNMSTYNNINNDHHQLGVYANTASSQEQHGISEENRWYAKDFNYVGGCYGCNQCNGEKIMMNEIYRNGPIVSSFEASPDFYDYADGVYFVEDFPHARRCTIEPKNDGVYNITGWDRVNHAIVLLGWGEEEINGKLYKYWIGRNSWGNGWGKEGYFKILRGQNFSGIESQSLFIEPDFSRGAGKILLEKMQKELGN
row,Compound,% Inhibition @ 10 uM [%]
1,CC(SC12CC3CC(CC(C3)C1)C2)C(=O)O (stereo not drawn),-0.415
2,Cc1ccc(S(=O)(=O)N(CC(=O)Nc2ccc3c(c2)OCO3)c2ccccc2C)cc1,-2.83
3,O=C(Nc1ccccc1C(=O)O)c1cccc(S(=O)(=O)Nc2ccccc2)c1,4.8
4,c1ccc(-c2cc(NCC3CC3)n3cnnc3n2)cc1,-4.39
5,CCCN1C(=S)NC2c3ccccc3OC1(C)C2C (stereo not drawn),-8.16
6,O=C1NN(c2ccc(Cl)c(Cl)c2)C(=O)/C1=C/c1ccc(Br)cc1,-1.5
7,CCOc1ccc(C2Oc3ccccc3C3CC(c4ccccc4O)=NN32)cc1 (stereo not drawn),1.55
8,CC[C@H](NC(=O)[C@H](CC1CCCCC1)/N=C/NS(=O)(=O)c1ccccc1)C(=O)c1nc2ccccc2o1,-8.36
9,Cc1cccc(CN2CCC(CNC(=O)c3cc(S(=O)(=O)N4CCCC4)cn3C)CC2)c1,-3.42
10,COc1ccc2nc(N(CCN(C)C)C(=O)COc3ccccc3)sc2c1,-5.3
11,Cc1[nH]c2ccccc2c1C(=O)/C=C/c1cccc2ccccc12,2.6
12,c1ccc2c(c1)c(NCc1ccncc1)nn1nnnc21,0.451
13,O=C1S/C(=C/c2cccc(O)c2)C(=O)N1Cc1ccccc1F,-1.22
14,Cc1ccccc1-n1nc2c(c1NC(=O)/C=C\c1ccccc1)CS(=O)(=O)C2,3.8
15,COc1cc2c(C)nc3c(c(C)nn3Cc3ccccc3)c2cc1OC,-0.254
16,COc1ccc(OC)c(C2C(=O)N(C3CCC(C)CC3)CC(=O)N2CCc2ccccc2)c1 (stereo not drawn),4.36
17,Cc1oc(-c2cccs2)nc1CS(=O)CC(=O)NCCc1ccc(Cl)cc1 (stereo not drawn),-1.89
18,Cn1ncc2c(N3CCC(O)CC3)ncnc21,5.23
19,COc1ccc(C2C=C(c3ccc(C)cc3)Nc3ncnn32)c(OC)c1OC (stereo not drawn),3.32
20,CN(C)CCN(C(=O)C1CCCCC1)c1nc2ccc(F)cc2s1,-5.59
21,O=C(Nc1cccc(O)c1)c1ccc(-c2ccccc2)cc1,2.5
22,Cc1ccc(-c2c(N3CCN(c4ccccn4)CC3)c(=O)c2=O)cc1,0.0281
23,O=C(c1ccccc1)c1ccc2nc(NCc3ccncc3)c3nncn3c2c1,5.84
24,COc1ccc(CCNC(=O)CCc2ccccc2)cc1OC,-4.16
25,Cc1csc2nc(CNC(=O)c3ccco3)cn12,0.953
26,O=C(NCCc1ccsc1)c1cc2ccccn2n1,-1.7

row,Compound,% Inhibition @ 10 uM [%]
1,COc1ccc(C)cc1NC(=O)CC(O)(C(F)(F)F)C(F)(F)F,0.907
2,CCc1ccc(OCC(=O)N(Cc2nc(-c3ccccc3)no2)C(C)C)cc1,0.809
3,CC(=O)Nc1ccccc1SCC(=O)Nc1sc2c(c1C#N)CCCC2,2.38
4,C=CCCC(C)(O)C(C=C)S(=O)(=O)c1ccc(C)cc1 (stereo not drawn),-4.06
5,O=C(CN1C(=O)S/C(=C\c2ccc(-c3ccc(F)cc3)o2)C1=O)N1CCCC1,-1.43
6,Cc1ccc(Cn2c(=O)c3c(ncn3Cc3ccccc3)n(C)c2=O)cc1,-1.6
7,Cc1ccc(NC2CC(=O)N(c3ccc(F)cc3)C2=O)cc1 (stereo not drawn),-17.7
8,COc1ccc(C2c3sc(O)nc3SC3C4CCC(C4)C23)cc1 (stereo not drawn),13.2
9,Cc1ccccc1OCc1nc(C#N)c(NCCN(C)C)o1,5.65
10,CCOc1nc(NC(C)(C)CO)nc(OCC)n1,2.33
11,Cc1ccnc(NC(=O)C2CCCN(S(=O)(=O)c3ccc4nc(O)ccc4c3)C2)c1 (stereo not drawn),0.568
12,CC(=O)N(CN1C(=O)C2C3C=CC(C3)C2C1=O)c1ccc(C)cc1 (stereo not drawn),4.99
13,O=C(O)c1ccccc1C(=O)Nc1ccc2ncccc2c1,1.66
14,CCOC(=O)N1CCC(NC(=O)C(CC)n2c3ccccc3c3cnnc(O)c32)CC1 (stereo not drawn),-0.281
15,O=C(NC1CC1)c1nc(-c2ccc(-n3cccc3)cc2)no1,-0.0678
16,CCN(CC)CCN(C)C1CCN(Cc2ccccc2)CC1,1.57
17,CC1CN(C(=O)c2cc(Cl)ccc2Cl)CC(C)O1 (stereo not drawn),-1.6
18,CCN1CCN(S(=O)(=O)c2c[nH]c(C(=O)OC)c2)CC1,0.0525
19,Cc1ccccc1Cn1c(CN2CCC(Cc3ccccc3)CC2)nc2c1c(=O)n(C)c(=O)n2C,-2.29
20,CCOCCCNC(=O)c1ccc2c(c1)ncn2-c1ccc(CC)cc1,-0.256
21,COC(=O)C1=C(N)Oc2cc(C)nc(O)c2C1c1ccccc1 (stereo not drawn),-1.11
22,CC1(C)CC(=O)C2=C(C1)OC(N)=C(C#N)C2c1cccc2ccccc12 (stereo not drawn),-0.268
23,C/C=C(\C)CN(CC)CCN(CC)CC,-0.603
24,COc1ccc(CCNC(=O)Cn2c3ccccc3c3cnnc(O)c32)cc1OC,-3.79
25,Cn1c(C(=O)N2CCCC(C(=O)NCCc3c[nH]c4ccccc34)C2)cc2sccc21 (stereo not drawn),-7.33
26,O=C(NC1CCCC1)c1cnn(-c2ccccc2)c1C1CCNCC1,-5.24

row,Compound,% Inhibition @ 10 uM [%]
1,COc1ccccc1/C=C(\C#N)c1nc(O)c2ccccc2n1,-1.1
2,O=C(NC(c1ccccc1)c1c(O)ccc2ccccc12)c1ccc(Cl)cc1Cl (stereo not drawn),-5.28
3,O=C(Nc1cccc(Cl)c1)OC1CC2C=CC1C2 (stereo not drawn),1.15
4,CCCC1(CCC)C(=O)N=C(Nc2ccccc2)NC1=O,19.8
5,CC(C)n1ncc2c(O)nc(Cc3ccccc3)nc21,5.61
6,CCOc1ccccc1/C=C1\N=C(c2ccccc2F)OC1=O,-3.71
7,CCOc1cccc2sc(NC(=O)c3ccc(C(C)(C)C)cc3)nc12,2.79
8,COc1ccc(CCNC(=O)C2CCCCC2)cc1OC,3.53
9,CCCCOc1cccc(NC(=O)c2ccccc2OC)c1,-0.771
10,CSC1=NSC2=NC(=O)/C(=C\c3cccnc3)C(=N)N12,2.59
11,CN1C(=O)NC(=O)/C(=C/c2ccc(C(=O)O)cc2)C1=O,-6.04
12,COc1ccc(C(=O)Nc2ccc(C#N)cc2)cc1Br,-5.3
13,O=C1OC(c2ccc(Cl)cc2Cl)=N/C1=C\c1ccc2c(c1)OCO2,-2.6
14,Cc1cc(C)c2c(n1)SCC(=O)N2CC(=O)NCCN1CCOCC1,-0.637
15,COc1cc(NC(=O)NC2(C(F)(F)F)Oc3ccc(Cl)cc3O2)ncn1 (stereo not drawn),1.62
16,COc1ccc(S(=O)(=O)Nc2cc(Cl)ccc2Cl)cc1,-1.62
17,CCOC(=O)c1sc(N2C(=O)c3oc4ccccc4c(=O)c3C2c2cccs2)nc1C (stereo not drawn),11
18,O=C(O)/C(=C\c1ccc2c(c1)OCO2)NC(=O)c1ccc(Br)o1,-2.87
19,CCN1CCN(C(=O)C2c3ccccc3C(=O)N3CCc4cc(OC)c(OC)cc4C23)CC1 (stereo not drawn),7.35
20,CCC1(CC)Cc2ccccc2C2=C(C(=O)N3CCCCCC3)C(=O)C(=O)N21,-3.34
21,Clc1ccc(CCNc2nc3ccc(Cl)cc3n3cnnc23)cc1,2.42
22,Cc1ccc(C)c(S(=O)(=O)NCc2ccc(C(=O)N3CC(C)CC(C)C3)cc2)c1 (stereo not drawn),3.49
23,Cc1ccc2[nH]c(NCc3ccccc3)nc2c1,-1.11
24,CC(C)c1ccc(/C=C/C(=O)Nc2ccc(S(N)(=O)=O)cc2)cc1,-0.969
25,CN(Cc1ccccc1)C(=O)c1ccc(Br)o1,-2.03
26,COc1ccc(N2CCN(Cc3ccc(C(F)(F)F)cc3)CC2)cc1,-2.03

row,Compound,% Inhibition @ 10 uM [%]
1,CC(C)C[C@H](NC(=O)OCc1ccccc1)C(=O)N[C@H]1CCN(C#N)C1,9
2,CC(C)Sc1nc(N)c2c3c(sc2n1)COC(C)(C)C3,6.56
3,C[C@@H](C[C@H](NC(=O)c1ccc(-c2ccccc2Cl)nc1)C(=O)NC1(C#N)CCOCC1)c1ccccc1,1.61
4,COc1ccc(-c2csc(/C(C#N)=C\Nc3ccccc3Cl)n2)cc1,4.39
5,COc1ccc(CCNc2nc(SCC(=O)c3ccc(O)c(O)c3)nc3ccccc23)cc1OC,4.96
6,COc1cccc(-c2coc3c2c(C)cc2oc(=O)cc(C)c23)c1,2.21
7,Clc1ccccc1C1CC(c2cccs2)Nc2ncnn21 (stereo not drawn),6.17
8,CCOc1ccc(NC(=O)COc2ccccc2C)cc1,2.64
9,CCC1C(=O)NC(=O)N1c1ccccc1 (stereo not drawn),-3.92
10,Cc1c(NC(=O)c2cc3ccccc3cc2O)cccc1NC(=O)c1cc2ccccc2cc1O,-0.261
11,COc1ccc(C(=O)N(CCN(C)C)c2nc3c(Cl)cccc3s2)cc1OC,0.434
12,CCc1nn(CC(=O)O)c(=O)c2cc3cc(F)ccc3n12,23.1
13,O=C(CNC(=S)N(Cc1ccccc1)Cc1ccccc1F)NCC1CCCO1 (stereo not drawn),1.27
14,CCn1c2ccccc2c2cc(CN3CCSCC3)ccc21,2.47
15,Oc1cc(-c2ccccc2)nc2cc(-c3ccccc3)nn12,-4.32
16,CC(C)OCCCNC(=O)CN1C(=O)CSc2ncccc21,-4.15
17,COc1cccc(NC(=O)C2c3ccccc3Oc3ccccc32)c1,4.32
18,COc1ccccc1CC(=N)NOC(=O)Cc1ccc(Cl)cc1,-5.08
19,O=C(CCc1ccccc1)Nc1cccc(F)c1,-1.29
20,CC(C)Oc1ccc(NC(=O)c2ccc([N+](=O)[O-])cc2)cc1,0.00178
21,Cc1nn(Cc2ccc(C(=O)NCc3ccccc3)o2)c(C)c1Cl,-0.725
22,Cc1cc(O)c(C2=NCCSC(c3cccc(Br)c3)C2)c(=O)o1 (stereo not drawn),1.45
23,Cc1ccccc1S(=O)(=O)NC(=O)NC1CCCCC1,-2.77
24,O=C(CSc1nnc(CNC(=O)c2cccs2)o1)c1ccccc1,-3.39
